# Reference: patent publication US20090143279A1 (priority 2007, published 2009)
# Tested on: cellular ATP levels
# Conditions: not given
row,Molecule,ATP
1,CC1=C(CC(=O)O)c2cc(F)ccc2/C1=C\c1ccc([S+](C)[O-])cc1 (stereo not drawn) [sulindac],0.793
2,(S)-(−)-atenolol,0.476

# Same assay, conditions: 20 μM; composite Z-score vs DMSO
row,Molecule,ATP
1,"CC[C@@H](C(=O)[C@@H](C)[C@@H](O)[C@H](C)[C@@H]1O[C@@H]([C@@H](CC)C(=O)O)CC[C@@H]1C)[C@H]1O[C@]2(C=C[C@@H](O)[C@]3(CC[C@@](C)([C@H]4CC[C@](O)(CC)[C@H](C)O4)O3)O2)[C@H](C)C[C@@H]1C [salinomycin, reference compound]",−3.542
2,C=C1CC[C@H](O)C/C1=C/C=C1\CCC[C@]2(C)[C@@H]([C@H](C)/C=C/[C@H](C)C(C)C)CC[C@@H]12 [ergocalciferol],−0.913
3,COC(=O)C1=CCCN(C)C1 [arecoline],−0.361
4,CCOC(=O)[C@H](CCc1ccccc1)N[C@@H](C)C(=O)N1Cc2ccccc2C[C@H]1C(=O)O [quinapril],0.434
5,CC1(C)S[C@@H]2[C@H](NC(=O)C(C(=O)O)c3ccccc3)C(=O)N2[C@H]1C(=O)O (stereo partly drawn) [carbenicillin],0.037
6,CC(=O)CCCCn1c(=O)c2c(ncn2C)n(C)c1=O [pentoxifylline],−0.027
7,Oc1c(Br)cc(Br)c2cccnc12 [broxyquinoline],−1.237
8,CCN(CC)Cc1cc(Nc2ccnc3cc(Cl)ccc23)ccc1O [amodiaquine],−0.270

# Same assay, conditions: 25.78 μM; composite Z-score vs DMSO
row,Molecule,ATP
1,COC(=O)C1=CCCN(C)C1 [arecoline],1.774

# Same assay, conditions: Conc 20 μM; normalized score vs mock-treated (DMSO) wells
row,Molecule,ATP (composite Z-score)
1,CC(=O)O[C@@H]1CC2C(C)(CC[C@H](O)C2(C)C)C2CC[C@]3(C)C(=CC(=O)O[C@H]3c3ccoc3)C21C (stereo partly drawn) [3beta-hydroxydeoxodihydrodeoxygedunin],0.202
2,CC(=O)Oc1ccccc1C(=O)Oc1ccccc1C(=O)O [diplosalsalate],−0.137
3,COc1c(O)cc2c(-c3ccccc3)cc(=O)oc2c1OC [kuhlmannin],1.119
4,CC1=CC(=O)C2=C(C)CC[C@@H]3[C@H](OC(=O)[C@H]3C)[C@@H]12 [leucodin],−1.027
5,COc1ccc(-c2cc(=O)c3c(O)cc(O[C@H]4O[C@H](CO[C@@H]5O[C@@H](C)[C@H](O)[C@@H](O)[C@H]5O)[C@@H](O)[C@H](O)[C@H]4O)cc3o2)cc1 [buddleoflavonoloside],0.643
6,C/C=C(/C)C(=O)O[C@H]1Cc2c(ccc3ccc(=O)oc23)OC1(C)C [selinidin],−0.419
7,COc1ccc(-c2oc3cc(O[C@@H]4O[C@H](CO)[C@@H](O)[C@H](O)[C@H]4O)c(OC)c(O)c3c(=O)c2OC)cc1O [centaurein],−0.337
8,CCC[C@H]1CC2=C(C[C@@H](CC)CC3=C1C(=O)OC3=O)C(=O)OC2=O [byssochlamic acid],−1.035
9,C=C1C2CC[C@@]3(C)[C@H](c4ccoc4)OC(=O)C[C@]13O[C@H]1CC(=O)C(C)(C)[C@H](C(OC(C)=O)C(=O)OC)[C@@]21C (stereo partly drawn) [6-acetoxyangolensic acid methyl ester],−0.780
10,COc1ccc2c(c1)OC/C(=C/c1ccc(OC)c(OC)c1)C2=O [sappanone A trimethyl ether],−0.015
11,CC1=CC(=O)C2=C(C)C[C@H](O)[C@@H]3[C@H](OC(=O)[C@H]3C)[C@H]12 [austricine],0.158

# Same assay, conditions: composite Z-score vs DMSO wells; Conc 20 μM
row,Molecule,ATP
1,C[N+](C)(C)CCCCCC[N+](C)(C)C [hexamethonium bromide],0.695
2,C#CC1(O)CC[C@H]2[C@@H]3CCC4=CC(=O)CC[C@@H]4[C@H]3CC[C@@]21CC (mixture of isomers) [norgestrel],0.593
3,CC(C)NCC(O)c1cc(O)cc(O)c1 (stereo not drawn) [metaproterenol],0.018
4,Cc1c(N(C)CS(=O)(=O)[O-])c(=O)n(-c2ccccc2)n1C.[Na+] [dipyrone],0.582
5,Cc1cc(NC(=O)C2=C(O)c3ccccc3S(=O)(=O)N2C)no1 [isoxicam],0.708

# Same assay, conditions: composite Z-score vs DMSO; Conc 20 μM
row,Molecule,ATP
1,"C[C@]12CC[C@H](O)C[C@@H]1CC[C@@H]1[C@@H]2CC[C@]2(C)[C@@H](O)CC[C@@H]12 [5alpha-androstan-3beta,17beta-diol]",0.359
2,COC(=O)C[C@H]1C2(C)CC34OC5(C)O[C@@]6([C@H](OC(C)=O)C(OC(C)=O)[C@]7(C)C(/C(=C(/O)C(C)C)C(=O)O[C@H]7c7ccoc7)[C@@]6(O5)[C@H](OC(C)=O)[C@@]3(O)C2OC(=O)C(C)C)[C@]14C (stereo partly drawn) [bussein],0.214
3,CCc1ccc2c(O)c3c(cc2c1C(=O)OC)C(=O)c1c(O)ccc(O)c1C3=O [bisanhydrorutilantinone],0.217
4,COc1cc(C(C)=O)cc(OC)c1O [acetosyringone],0.040
5,C[C@H](CCC(=O)O)[C@H]1CC[C@H]2[C@@H]3CC[C@H]4C[C@H](O)CC[C@]4(C)[C@H]3C[C@H](O)[C@]12C [allodeoxycholic acid],−1.212
6,CC(=O)O[C@@H]1C[C@H]2C(C)(C)C(=O)C=C[C@]2(C)[C@H]2CC[C@]3(C)C(=CC(=O)O[C@H]3c3ccoc3)[C@@]21C [deoxygedunin],1.094
7,COc1cc(O)c(C(=O)/C=C/c2ccccc2)c(OC)c1 [flavokawain B],0.641
8,CC(=O)Nc1c(I)cc(I)c(C(=O)O)c1I [acetriazoic acid],−0.024
9,CCOC(=O)c1c(C)cc(OC)cc1O [ethyl everninate],0.492
10,CC(=O)C1=C(O)[C@@H]2[C@H]3c4c[nH]c5cccc(c45)C[C@H]3C(C)(C)N2C1=O [cyclopiazonic acid],−0.353
11,CC(=O)[C@@]1(O)CC[C@H]2[C@@H]3C=C(Cl)C4=CC(=O)[C@@H]5C[C@@H]5[C@]4(C)[C@H]3CC[C@@]21C [cyproterone],0.856
12,CC(=O)O[C@H]1CC[C@@]2(C)[C@H](CC[C@@H]3[C@@H]2CC[C@]2(C)[C@@H](C4=CC(=O)OC4)[C@@H](OC(C)=O)C[C@]32O)C1 [gitoxigenin diacetate],1.895
13,O=C(O)c1cc(O)c2c(c1)[C@H]([C@H]1c3cc(C(=O)O)cc(O)c3C(=O)c3c(O[C@@H]4O[C@H](CO)[C@@H](O)[C@H](O)[C@H]4O)cccc31)c1cccc(O[C@@H]3O[C@H](CO)[C@@H](O)[C@H](O)[C@H]3O)c1C2=O [sennoside A],−0.358
14,CNC(=O)ON=C(C)SC [methomyl],−0.211
15,COC1=C(O)C(=O)c2c(cc3oc(C(C)=O)c(O)c3c2O)C1=O [rhodocladonic acid],1.670
16,CN[C@@H]1[C@@H](O[C@H]2O[C@H](CO)[C@@H](N)[C@H](O)[C@H]2O)OC2C[C@@H](N)[C@@H](O[C@H]3[C@H](O)[C@@H](O)[C@H](N)C[C@@H]3N)OC2[C@@H]1O (stereo partly drawn) [apramycin],1.018

# Same assay, conditions: composite Z-score vs DMSO; Conc 20.18 μM
row,Molecule,ATP
1,NC(=O)N/N=C/c1ccc([N+](=O)[O-])o1 [nitrofural],1.443

# Same assay, conditions: composite Z-score vs mock-treated (DMSO) wells; Conc 20 μM
row,Molecule,ATP
1,COC(=O)C[C@H]1C2(C)CC34OC5(C)O[C@@]6([C@H](OC(C)=O)C(OC(C)=O)[C@]7(C)C(/C(=C(/O)C(C)C)C(=O)O[C@H]7c7ccoc7)[C@@]6(O5)[C@H](OC(C)=O)[C@@]3(O)C2OC(=O)C(C)C)[C@]14C (stereo partly drawn) [bussein],−0.071
2,CC(=O)Oc1cc(-c2coc3cc(OC(C)=O)c(OC(C)=O)c(OC(C)=O)c3c2=O)cc(OC(C)=O)c1OC(C)=O [iriginol hexaaceatate],0.302
3,CC1=CCc2c(cc3oc(C)cc(=O)c3c2O)OC1 [ptaeroxylin],−0.704
4,CC1(C)C(=O)C=C[C@]2(C)[C@H]3CC[C@@]4(C)[C@H](c5ccoc5)OC(=O)[C@H]5O[C@]54[C@]3(C)[C@H](O)C[C@@H]12 [deacetylgedunin],0.232
5,CC1(C)C2CC(=O)O[C@@]3(C)C4=CC(=O)O[C@@H](c5ccoc5)[C@]4(C)CCC3[C@@]2(C)C=C[C@H]1O (stereo partly drawn) [deoxyandirobin lactone],0.967
6,"COc1cc2c(cc1OC)[C@@H]1C(=O)c3ccc(OC)c(CC=C(C)C)c3O[C@@H]1CO2 [rotenonic acid, methyl ether]",−4.969
7,COc1ccc(-c2coc3cc(O)ccc3c2=O)c(OC)c1 [2′-methoxyformonetin],1.998
8,Cc1cc(=O)c2c(O)c3c(cc2o1)OC(C)(C)CC3 [dihydrospatheliachromene],0.342
9,Cc1cc(O)c2c(O)c3c(O)cccc3cc2c1 [chrysarobin],0.593
10,"C=CC(C1=CC(=O)C(OC)=C(OC)C1=O)c1ccccc1 (stereo not drawn) [3,4-dimethoxydalbergione, reference compound]",−5.364
11,CC1(C)C=Cc2cc3ccc(=O)oc3cc2O1 [xanthyletin],0.349

# Same assay, conditions: doses ranging up to 40 μM, 48 hours, FIG. 10
row,Molecule,"cellular ATP levels, dose response"
1,"CC(C)c1nc(N(C)S(C)(=O)=O)nc(-c2ccc(F)cc2)c1/C=C/[C@@H](O)C[C@@H](O)CC(=O)O [rosuvastatin, reference compound]",little to no effect

# Same assay, conditions: normalized composite Z-score vs mock-treated (DMSO) wells; Conc 20 μM
row,Molecule,ATP
1,"COc1ccccc1-c1cc(=O)c2c(OC)cccc2o1 [5,2′-dimethoxyflavone]",1.331
2,"CC1(C)C2CC(=O)[C@]3(C)C(CC[C@@]4(C)[C@H](c5ccoc5)OC(=O)C5OC543)[C@@]2(C)[C@@H](O)C[C@H]1O (stereo partly drawn) [1,3-dideacetyl-7-deacetoxy-7-oxokhivorin]",−0.006
3,CC1(C)CC2C1CC[C@]1(CBr)CCC3C(CC(=O)O)C(=O)O[C@@]32C1 (stereo partly drawn),−0.346
4,CCCCCC1C(=O)CCC1CC(=O)O (stereo not drawn) [dihydrojasmonic acid],0.502
5,"COC(=O)CC[C@@H](C)[C@H]1CC[C@H]2[C@@H]3[C@H](O)C[C@@H]4C[C@H](O)CC[C@]4(C)[C@H]3C[C@H](O)[C@]12C [cholic acid, methyl ester]",2.202
6,"Cc1c(O)c(O)cc2c1CC=C1[C@@]2(C)CC[C@@]2(C)[C@@H]3C[C@](C)(C(=O)O)CC[C@]3(C)CC[C@]12C [Dihydrocelastrol, reference compound]",−2.447
7,Cc1cc(=O)c2c(O)c3c(cc2o1)OCC(C)CC3 (stereo not drawn) [dihydroptaeroxylin],0.530
8,theaflavin monogallate,0.164
9,COc1ccc([C@H]2Oc3cc(OC)cc(OC)c3C[C@H]2O)cc1 [epiafzelechin trimethyl ether],0.312
10,CC(C)C1COc2cc3oc(=O)ccc3cc2O1 (stereo not drawn) [dihydro-obliquin],−0.036
11,COc1cc2c(cc1OC)C1(O)C(=O)c3ccc(O)c(C(=O)O)c3OC1CO2 (stereo not drawn),1.728
12,"COc1c(-c2ccccc2)oc2c(OC)cccc2c1=O [3,8-dimethoxyflavone]",0.242
13,COc1ccc2c(c1)C1(C)CCC(=O)CC1CC2 (stereo not drawn),0.458
